Assay results reported in publication PMC5645086, “Analysis of the interaction of Plexin-B1 and Plexin-B2 with Rnd family proteins” (PLoS ONE, 2017).
Numbering of substitutions follows the chain as printed. No constants are given. Whether binding was seen depends on the method and setting. Some results given as binding are weak or reduced against the parent protein; the word gives no strength. Blank lines part the entries; values can stand above or below the molecule they belong to.

Chains of the proteins cited; added tags and fusions are not shown. Residues count along the entry.
UniProt O43157, residues 1746-1851: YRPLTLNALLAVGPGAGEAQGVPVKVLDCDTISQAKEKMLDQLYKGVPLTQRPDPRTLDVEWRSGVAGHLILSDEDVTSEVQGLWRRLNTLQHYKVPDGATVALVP

How the values were obtained:
[1] = molecular target: T1, Rnd3-L90R (GTP-binding domain, residues 16-200) (UniProt P61587); assay: condition: typically 400–600 μM Plexin-B1-RBD in the syringe, 40–60 μM Rnd3 protein in the cell; ITC; Plexin-B-RBD (400-600 uM, syringe) titrated into Rnd protein (40-60 uM, cell); 25°C; buffer 2: 50 mM sodium phosphate pH 7.0, 150 mM NaCl, 4 mM MgCl2, 3 mM DTT; independent binding sites model; both purified
T1 sequence: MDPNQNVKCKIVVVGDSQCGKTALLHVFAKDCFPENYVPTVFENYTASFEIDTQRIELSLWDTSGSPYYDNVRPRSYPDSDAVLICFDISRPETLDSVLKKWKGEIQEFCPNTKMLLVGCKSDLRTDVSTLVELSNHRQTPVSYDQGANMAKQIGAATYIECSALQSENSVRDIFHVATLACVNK

[2] = molecular target: T2, Rnd3-V87R (GTP-binding domain, residues 16-200) (UniProt P61587); assay: as above
T2 sequence: T1 sequence with V72R, R75L

[3] = molecular target: T3, Rnd1 GTP-binding domain (residues 1-191) (UniProt Q92730); assay: SEC; Superdex75 10/300, 4°C; 1:1 molar mixture, 100 uM of each protein; 50 mM sodium phosphate pH 7.0, 150 mM NaCl, 4 mM MgCl2, 3 mM DTT; size estimated from elution volume against the proteins alone; both purified
T3 sequence: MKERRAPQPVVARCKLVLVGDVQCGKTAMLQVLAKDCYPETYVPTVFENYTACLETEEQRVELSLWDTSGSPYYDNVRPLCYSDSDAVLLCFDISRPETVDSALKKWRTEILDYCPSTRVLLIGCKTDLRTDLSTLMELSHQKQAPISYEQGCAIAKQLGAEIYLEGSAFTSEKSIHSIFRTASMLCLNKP

[4] = molecular target: T4, Rnd2 GTP-binding domain (residues 2-184) (UniProt P52198); assay: as above
T4 sequence: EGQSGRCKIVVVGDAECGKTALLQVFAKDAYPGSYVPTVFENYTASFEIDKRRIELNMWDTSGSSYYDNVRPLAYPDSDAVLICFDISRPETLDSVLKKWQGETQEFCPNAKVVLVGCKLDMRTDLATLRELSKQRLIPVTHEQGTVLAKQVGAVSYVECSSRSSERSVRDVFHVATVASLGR

[5] = molecular target: T5, Rnd3 GTP-binding domain (residues 16-200), wild type (UniProt P61587); assay: as above
T5 sequence: T1 sequence with R75L

[6] = molecular target: T1, Rnd3-L90R (GTP-binding domain, residues 16-200); assay: condition: typically 400–600 μM Plexin-B2-RBD in the syringe, 40–60 μM Rnd3 protein in the cell; ITC; Plexin-B-RBD (400-600 uM, syringe) titrated into Rnd protein (40-60 uM, cell); 25°C; buffer 2: 50 mM sodium phosphate pH 7.0, 150 mM NaCl, 4 mM MgCl2, 3 mM DTT; independent binding sites model; both purified
[7] = molecular target: T2, Rnd3-V87R (GTP-binding domain, residues 16-200); assay: as above

binding [1]: no binding
binding [2]: no binding
Molecule: Plexin-B1-RBD (Rho-binding domain of Plexin-B1, residues 1746-1851), histidine-tagged (from UniProt O43157 1746-1851) (domain or fragment)

binding [3]: binds
binding [4]: binds
binding [5]: binds
binding [6]: no binding
binding [7]: no binding
B1: Plexin-B2-RBD (Rho-binding domain of Plexin-B2, residues 1452-1562) (domain or fragment, UniProt O15031 1452-1562, looked up)
chain: GLLGDDVEYAPLTVSVIVQDEGVDAIPVKVLNCDTISQVKEKIIDQVYRGQPCSCWPRPDSVVLEWRPGSTAQILSDLDLTSQREGRWKRVNTLMHYNVRDGATLILSKVG
notes: Vector pETDuet-1; tag removed with TEV protease; source: E. coli BL21 (DE3), purified (Nickel-NTA, TEV cleavage; in some cases ion exchange or size exclusion chromatography); not shown: His6, N-terminal, cleaved
